Results are given in words; binding and its absence hold for the method and conditions named. In cells and extracts the contact can be indirect. Some results given as binding are weak or reduced against the parent protein; the word gives no strength. Where a sequence is shown, tags or fusion partners need not be part of it.
T1: GST-PTP1B-D181A (substrate-trapping mutant of PTP1B, GST fusion protein) (mouse) (UniProt P35821)
T1 sequence: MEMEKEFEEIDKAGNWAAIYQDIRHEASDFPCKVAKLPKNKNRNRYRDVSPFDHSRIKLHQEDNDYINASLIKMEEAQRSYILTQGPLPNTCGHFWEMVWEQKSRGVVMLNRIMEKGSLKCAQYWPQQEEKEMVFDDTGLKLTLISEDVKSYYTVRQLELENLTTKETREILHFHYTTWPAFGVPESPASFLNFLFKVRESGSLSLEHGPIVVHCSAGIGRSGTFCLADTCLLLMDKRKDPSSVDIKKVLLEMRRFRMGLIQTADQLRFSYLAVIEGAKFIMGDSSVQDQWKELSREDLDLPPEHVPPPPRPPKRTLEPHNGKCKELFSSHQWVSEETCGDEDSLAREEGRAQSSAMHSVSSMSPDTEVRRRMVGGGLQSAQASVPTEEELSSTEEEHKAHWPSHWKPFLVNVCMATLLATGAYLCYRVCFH

T2: GST-PTP1B-WT (wild type protein tyrosine phosphatase-1B, GST fusion protein) (mouse) (UniProt P35821)
T2 sequence: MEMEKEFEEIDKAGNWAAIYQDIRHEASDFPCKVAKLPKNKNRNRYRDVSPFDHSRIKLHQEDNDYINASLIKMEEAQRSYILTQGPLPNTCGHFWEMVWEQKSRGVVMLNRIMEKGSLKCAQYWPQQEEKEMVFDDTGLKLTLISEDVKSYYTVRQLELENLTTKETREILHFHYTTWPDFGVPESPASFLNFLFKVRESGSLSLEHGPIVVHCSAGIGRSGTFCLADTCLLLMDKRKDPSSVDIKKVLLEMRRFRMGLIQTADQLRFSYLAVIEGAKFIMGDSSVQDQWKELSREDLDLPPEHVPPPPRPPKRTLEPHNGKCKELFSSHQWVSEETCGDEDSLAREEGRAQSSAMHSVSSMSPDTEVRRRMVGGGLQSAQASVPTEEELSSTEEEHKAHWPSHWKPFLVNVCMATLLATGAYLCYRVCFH


Assays:
[1] = target: T1, GST-PTP1B-D181A (substrate-trapping mutant of PTP1B, GST fusion protein) (mouse); assay: pull-down; substrate trapping: GST-PTP1B-WT or GST-PTP1B-D181A bound on glutathione beads; lysates of retinal ex vivo explants or HEK-293T cells treated with 1 mM pervanadate for 30 min; 2 h at 4°C in substrate-trapping buffer; immunoblot with anti-Gab1 or anti-Myc; only the target purified
[2] = target: T2, GST-PTP1B-WT (wild type protein tyrosine phosphatase-1B, GST fusion protein) (mouse); assay: as above
[3] = target: T1, GST-PTP1B-D181A (substrate-trapping mutant of PTP1B, GST fusion protein) (mouse); assay: pull-down; as the substrate trapping pull-down, but HEK-293T cells were not treated with pervanadate; immunoblot with anti-Myc and anti-pGab1; only the target purified
[4] = target: T1, GST-PTP1B-D181A (substrate-trapping mutant of PTP1B, GST fusion protein) (mouse); assay: condition: only lysates treated with wild type PTP1B before the pull-down; pull-down; as the substrate trapping pull-down, but lysates of pervanadate-treated HEK-293T cells were incubated with wild type GST-PTP1B before the pull-down; immunoblot with anti-Myc; only the target purified

| Binder | binding [1] | binding [2] | binding [4] | binding [3] |
| --- | --- | --- | --- | --- |
| Myc-tagged Gab1-Y407F (protein, UniProt Q9QYY0 1-695) MSGGEVVCSGWLRKSPPEKKLKRYAWKRRWFVLRSGRLTGDPDVLEYYKNDHAKKPIRIIDLNLCQQVDAGLTFNKKEFENSYIFDINTIDRIFYLVADSEEDMNKWVRCICDICGFNPTEEDPVKPLTGSSQAPVDSPFAISTAPASSQMEASSVALPPPYQVISLPPHPDTLGLQDDPQDYLLLINCQSKKPEPNRTLFDSAKPTFSETDCNDNVPSHQTPASSQSKHGMNGFFQQQMMYDCPPSRLTSVSGESSLYNLPRSYSHDVLPKESPSSTEADGELYTFNTPSGTAGVETQMRHVSISYDIPPTPGNTYQIPRTFPESTLGQSSKLDTIPDIPPPRPPKPHPTHDRSPVETCGVPRTASDTDSSYCIPPPAGMTPSRSNTISTVDLNKLRKDASSQDCFDIPRTFPSDRSSSLEGFHSQYKIKSVLTAGGVSGEELDENYVPMNPNSPPRQHSGSFTEPIQEPNYVPMTPGTFDFSSFGMQVPPPAHMGFRSSPKTPPRRPVPVADCEPPPVDRNLKPDRKVKPAPLDIKPLSEWEELQAPVRSPITRSFARDSSRFPMSPRPDSVHSTTSSSDSHDSEENYVPMNPNLSGEDPNLFASNSLDGGSSPMNKPKGDKQVEYLDLDLDSGKSTPPRKQKSSGSGSSMADERVDYVVVDQQKTLALKSTREAWTDGRQSTESETPTKNVK | binds |  |  |  |
| Myc-tagged Gab1-Y285F (protein, UniProt Q9QYY0 1-695) MSGGEVVCSGWLRKSPPEKKLKRYAWKRRWFVLRSGRLTGDPDVLEYYKNDHAKKPIRIIDLNLCQQVDAGLTFNKKEFENSYIFDINTIDRIFYLVADSEEDMNKWVRCICDICGFNPTEEDPVKPLTGSSQAPVDSPFAISTAPASSQMEASSVALPPPYQVISLPPHPDTLGLQDDPQDYLLLINCQSKKPEPNRTLFDSAKPTFSETDCNDNVPSHQTPASSQSKHGMNGFFQQQMMYDCPPSRLTSVSGESSLYNLPRSYSHDVLPKESPSSTEADGELFTFNTPSGTAGVETQMRHVSISYDIPPTPGNTYQIPRTFPESTLGQSSKLDTIPDIPPPRPPKPHPTHDRSPVETCGVPRTASDTDSSYCIPPPAGMTPSRSNTISTVDLNKLRKDASSQDCYDIPRTFPSDRSSSLEGFHSQYKIKSVLTAGGVSGEELDENYVPMNPNSPPRQHSGSFTEPIQEPNYVPMTPGTFDFSSFGMQVPPPAHMGFRSSPKTPPRRPVPVADCEPPPVDRNLKPDRKVKPAPLDIKPLSEWEELQAPVRSPITRSFARDSSRFPMSPRPDSVHSTTSSSDSHDSEENYVPMNPNLSGEDPNLFASNSLDGGSSPMNKPKGDKQVEYLDLDLDSGKSTPPRKQKSSGSGSSMADERVDYVVVDQQKTLALKSTREAWTDGRQSTESETPTKNVK | binds |  |  |  |
| Myc-tagged Gab1-Y373F (protein, UniProt Q9QYY0 1-695) MSGGEVVCSGWLRKSPPEKKLKRYAWKRRWFVLRSGRLTGDPDVLEYYKNDHAKKPIRIIDLNLCQQVDAGLTFNKKEFENSYIFDINTIDRIFYLVADSEEDMNKWVRCICDICGFNPTEEDPVKPLTGSSQAPVDSPFAISTAPASSQMEASSVALPPPYQVISLPPHPDTLGLQDDPQDYLLLINCQSKKPEPNRTLFDSAKPTFSETDCNDNVPSHQTPASSQSKHGMNGFFQQQMMYDCPPSRLTSVSGESSLYNLPRSYSHDVLPKESPSSTEADGELYTFNTPSGTAGVETQMRHVSISYDIPPTPGNTYQIPRTFPESTLGQSSKLDTIPDIPPPRPPKPHPTHDRSPVETCGVPRTASDTDSSFCIPPPAGMTPSRSNTISTVDLNKLRKDASSQDCYDIPRTFPSDRSSSLEGFHSQYKIKSVLTAGGVSGEELDENYVPMNPNSPPRQHSGSFTEPIQEPNYVPMTPGTFDFSSFGMQVPPPAHMGFRSSPKTPPRRPVPVADCEPPPVDRNLKPDRKVKPAPLDIKPLSEWEELQAPVRSPITRSFARDSSRFPMSPRPDSVHSTTSSSDSHDSEENYVPMNPNLSGEDPNLFASNSLDGGSSPMNKPKGDKQVEYLDLDLDSGKSTPPRKQKSSGSGSSMADERVDYVVVDQQKTLALKSTREAWTDGRQSTESETPTKNVK | binds |  |  |  |

Continued, in another order:

| binding [1] | binding [2] | binding [4] | Binder | binding [3] |
| --- | --- | --- | --- | --- |
| binds |  |  | Truncated Myc-Gab1 (1–280 amino acids) (domain or fragment, UniProt Q9QYY0 1-280) MSGGEVVCSGWLRKSPPEKKLKRYAWKRRWFVLRSGRLTGDPDVLEYYKNDHAKKPIRIIDLNLCQQVDAGLTFNKKEFENSYIFDINTIDRIFYLVADSEEDMNKWVRCICDICGFNPTEEDPVKPLTGSSQAPVDSPFAISTAPASSQMEASSVALPPPYQVISLPPHPDTLGLQDDPQDYLLLINCQSKKPEPNRTLFDSAKPTFSETDCNDNVPSHQTPASSQSKHGMNGFFQQQMMYDCPPSRLTSVSGESSLYNLPRSYSHDVLPKESPSSTEA |  |
| binds | no binding |  | Gab1 expressed from pCDNA3-Gab1 in HEK-293T cells (no tag named) (protein, UniProt Q9QYY0 1-695) MSGGEVVCSGWLRKSPPEKKLKRYAWKRRWFVLRSGRLTGDPDVLEYYKNDHAKKPIRIIDLNLCQQVDAGLTFNKKEFENSYIFDINTIDRIFYLVADSEEDMNKWVRCICDICGFNPTEEDPVKPLTGSSQAPVDSPFAISTAPASSQMEASSVALPPPYQVISLPPHPDTLGLQDDPQDYLLLINCQSKKPEPNRTLFDSAKPTFSETDCNDNVPSHQTPASSQSKHGMNGFFQQQMMYDCPPSRLTSVSGESSLYNLPRSYSHDVLPKESPSSTEADGELYTFNTPSGTAGVETQMRHVSISYDIPPTPGNTYQIPRTFPESTLGQSSKLDTIPDIPPPRPPKPHPTHDRSPVETCGVPRTASDTDSSYCIPPPAGMTPSRSNTISTVDLNKLRKDASSQDCYDIPRTFPSDRSSSLEGFHSQYKIKSVLTAGGVSGEELDENYVPMNPNSPPRQHSGSFTEPIQEPNYVPMTPGTFDFSSFGMQVPPPAHMGFRSSPKTPPRRPVPVADCEPPPVDRNLKPDRKVKPAPLDIKPLSEWEELQAPVRSPITRSFARDSSRFPMSPRPDSVHSTTSSSDSHDSEENYVPMNPNLSGEDPNLFASNSLDGGSSPMNKPKGDKQVEYLDLDLDSGKSTPPRKQKSSGSGSSMADERVDYVVVDQQKTLALKSTREAWTDGRQSTESETPTKNVK |  |
| binds | no binding | no binding | Myc-tagged full-length Gab1 (wild type) (protein, UniProt Q9QYY0 1-695) MSGGEVVCSGWLRKSPPEKKLKRYAWKRRWFVLRSGRLTGDPDVLEYYKNDHAKKPIRIIDLNLCQQVDAGLTFNKKEFENSYIFDINTIDRIFYLVADSEEDMNKWVRCICDICGFNPTEEDPVKPLTGSSQAPVDSPFAISTAPASSQMEASSVALPPPYQVISLPPHPDTLGLQDDPQDYLLLINCQSKKPEPNRTLFDSAKPTFSETDCNDNVPSHQTPASSQSKHGMNGFFQQQMMYDCPPSRLTSVSGESSLYNLPRSYSHDVLPKESPSSTEADGELYTFNTPSGTAGVETQMRHVSISYDIPPTPGNTYQIPRTFPESTLGQSSKLDTIPDIPPPRPPKPHPTHDRSPVETCGVPRTASDTDSSYCIPPPAGMTPSRSNTISTVDLNKLRKDASSQDCYDIPRTFPSDRSSSLEGFHSQYKIKSVLTAGGVSGEELDENYVPMNPNSPPRQHSGSFTEPIQEPNYVPMTPGTFDFSSFGMQVPPPAHMGFRSSPKTPPRRPVPVADCEPPPVDRNLKPDRKVKPAPLDIKPLSEWEELQAPVRSPITRSFARDSSRFPMSPRPDSVHSTTSSSDSHDSEENYVPMNPNLSGEDPNLFASNSLDGGSSPMNKPKGDKQVEYLDLDLDSGKSTPPRKQKSSGSGSSMADERVDYVVVDQQKTLALKSTREAWTDGRQSTESETPTKNVK | no binding (condition: cells not treated with pervanadate) |
| binds |  |  | Myc-tagged Gab1-Y448F (protein, UniProt Q9QYY0 1-695) MSGGEVVCSGWLRKSPPEKKLKRYAWKRRWFVLRSGRLTGDPDVLEYYKNDHAKKPIRIIDLNLCQQVDAGLTFNKKEFENSYIFDINTIDRIFYLVADSEEDMNKWVRCICDICGFNPTEEDPVKPLTGSSQAPVDSPFAISTAPASSQMEASSVALPPPYQVISLPPHPDTLGLQDDPQDYLLLINCQSKKPEPNRTLFDSAKPTFSETDCNDNVPSHQTPASSQSKHGMNGFFQQQMMYDCPPSRLTSVSGESSLYNLPRSYSHDVLPKESPSSTEADGELYTFNTPSGTAGVETQMRHVSISYDIPPTPGNTYQIPRTFPESTLGQSSKLDTIPDIPPPRPPKPHPTHDRSPVETCGVPRTASDTDSSYCIPPPAGMTPSRSNTISTVDLNKLRKDASSQDCYDIPRTFPSDRSSSLEGFHSQYKIKSVLTAGGVSGEELDENFVPMNPNSPPRQHSGSFTEPIQEPNYVPMTPGTFDFSSFGMQVPPPAHMGFRSSPKTPPRRPVPVADCEPPPVDRNLKPDRKVKPAPLDIKPLSEWEELQAPVRSPITRSFARDSSRFPMSPRPDSVHSTTSSSDSHDSEENYVPMNPNLSGEDPNLFASNSLDGGSSPMNKPKGDKQVEYLDLDLDSGKSTPPRKQKSSGSGSSMADERVDYVVVDQQKTLALKSTREAWTDGRQSTESETPTKNVK |  |

From article PMC3637500
